# Data as given in the supplement of paper PMC8728848.
# The other results are listed elsewhere or left out.
# B1: OGAA (protein)
# chain: MVQKESQATLEERESELSSNPAASAGASLEPPAAPAPGEDNPAGAGGAAVAGAAGGARRFLCGVVEGFYGRPWVMEQRKELFRRLQKWELNTYLYAPKDDYKHRMFWREMYSVEEAEQLMTLISAAREYEIEFIYAISPGLDITFSNPKEVSTLKRKLDQVSQFGCRSFALLFADIDHNMCAADKEVFSSFAHAQVSITNEIYQYLGEPETFLFCPTEYCGTFCYPNVSQSPYLRTVGEKLLPGIEVLWTGPKVVSKEIPVESIEEVSKIIKRAPVIWDNIHANDYDQKRLFLGPYKGRSTELIPRLKGVLTNPNCEFEANYVAIHTLATWYKSNMNGVRKDVVMTDSEDSTVSIQIKLENEGSDEDIETDVLYSPQMALKLALTEWLQEFGVPHQY
# Legend:
# Experiment in all cases: glycan array binding signal (z-score within array); higher = stronger binding
# Details in all cases: glycan notation: IUPAC condensed, linker removed
# Neu5Ac(a2-8)Neu5Ac = target: Neu5Ac(a2-8)Neu5Ac
# Method in brief: (§1)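 Negative Z-scores can be read as non-binding. The Z-score is calculated within each array and then averaged across arrays of one protein sequence at different concentrations or buffers and across linkers. Arrays, 3228 in all, were curated from the Consortium for Functional Glycomics database and kept only where the protein sequence was available.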
# [1] = target: Neu5Ac(a2-8)Neu5Ac(a2-3)Gal(b1-3)GalNAc(b1-4)[Neu5Ac(a2-3)]Gal(b1-4)Glc
# Method in brief: as §1
# [2] = target: Neu5Ac(a2-8)Neu5Ac(a2-3)Gal(b1-3)GalNAc(b1-4)[Neu5Ac(a2-8)Neu5Ac(a2-3)]Gal(b1-4)Glc
# Method in brief: as §1
# [3] = target: Neu5Ac(a2-8)Neu5Ac(a2-3)Gal(b1-4)Glc
# Method in brief: as §1
# [4] = target: Neu5Ac(a2-8)Neu5Ac(a2-3)Gal(b1-4)GlcNAc
# Method in brief: as §1
# [5] = target: Neu5Ac(a2-8)Neu5Ac(a2-3)[Gal(b1-3)GalNAc(b1-4)]Gal(b1-4)Glc
# Method in brief: as §1
# [6] = target: Neu5Ac(a2-8)Neu5Ac(a2-3)[GalNAc(b1-4)]Gal(b1-4)Glc
# Method in brief: as §1
# [7] = target: Neu5Ac(a2-8)Neu5Ac(a2-8)Neu5Ac
# Method in brief: as §1
# [8] = target: Neu5Ac(a2-8)Neu5Ac(a2-8)Neu5Ac(a2-3)Gal(b1-4)Glc
# Method in brief: as §1
# [9] = target: Neu5Ac(a2-8)Neu5Ac(a2-8)Neu5Ac(a2-3)[Gal(b1-3)GalNAc(b1-4)]Gal(b1-4)Glc
# Method in brief: as §1
# [10] = target: Neu5Ac(a2-8)Neu5Ac(a2-8)Neu5Ac(a2-3)[GalNAc(b1-4)]Gal(b1-4)Glc
# Method in brief: as §1
# [11] = target: Neu5Ac(a2-8)Neu5Ac(a2-8)Neu5Ac(a2-8)Neu5Ac(a2-3)[GalNAc(b1-4)]Gal(b1-4)Glc
# Method in brief: as §1
# [12] = target: Neu5Ac(a2-8)Neu5Gc(a2-3)Gal(b1-4)GlcNAc
# Method in brief: as §1
# [13] = target: Neu5Ac(b2-6)Gal(b1-4)GlcNAc
# Method in brief: as §1
# Neu5Ac(b2-6)GalNAc = target: Neu5Ac(b2-6)GalNAc
# Method in brief: as §1
# [14] = target: Neu5Ac9Ac(a2-3)Gal(b1-3)GlcNAc
# Method in brief: as §1
# [15] = target: Neu5Ac9Ac(a2-3)Gal(b1-4)GlcNAc
# Method in brief: as §1
# [16] = target: Neu5Ac9Ac(a2-6)Gal(b1-4)GlcNAc
# Method in brief: as §1
# [17] = target: Neu5Gc(a2-3)Gal(b1-3)GlcNAc
# Method in brief: as §1
# [18] = target: Neu5Gc(a2-3)Gal(b1-3)[Fuc(a1-4)]GlcNAc
# Method in brief: as §1
# Neu5Gc(a2-3)Gal(b1-4)Glc = target: Neu5Gc(a2-3)Gal(b1-4)Glc
# Method in brief: as §1
# [19] = target: Neu5Gc(a2-3)Gal(b1-4)GlcNAc
# Method in brief: as §1
# [20] = target: Neu5Gc(a2-3)Gal(b1-4)GlcNAc(b1-3)Gal(b1-4)GlcNAc(b1-2)Man(a1-3)[Neu5Gc(a2-3)Gal(b1-4)GlcNAc(b1-3)Gal(b1-4)GlcNAc(b1-2)Man(a1-6)]Man(b1-4)GlcNAc(b1-4)GlcNAc
# Method in brief: as §1
# [21] = target: Neu5Gc(a2-3)Gal(b1-4)[Fuc(a1-3)]GlcNAc
# Method in brief: as §1
# [22] = target: Neu5Gc(a2-6)Gal(b1-4)GlcNAc
# Method in brief: as §1
# Neu5Gc(a2-6)GalNAc = target: Neu5Gc(a2-6)GalNAc
# Method in brief: as §1
# [23] = target: Neu5Gc(a2-8)Neu5Ac(a2-3)Gal(b1-4)GlcNAc
# Method in brief: as §1
# [24] = target: Neu5Gc(a2-8)Neu5Gc(a2-3)Gal(b1-4)GlcNAc
# Method in brief: as §1
# [25] = target: Neu5Gc(a2-8)Neu5Gc(a2-3)Gal(b1-4)GlcNAc(b1-3)Gal(b1-4)GlcNAc
# Method in brief: as §1
# [26] = target: Neu5Gc(a2-8)Neu5Gc(a2-6)Gal(b1-4)GlcNAc
# Method in brief: as §1
# [27] = target: Neu5Gc(b2-6)Gal(b1-4)GlcNAc
# Method in brief: as §1
binder,measurement,setting,value
B1,glycan array binding signal (z-score),Neu5Ac(a2-8)Neu5Ac,-0.121
same,glycan array binding signal (z-score),[1],-0.107
same,glycan array binding signal (z-score),[2],0.02
same,glycan array binding signal (z-score),[3],-0.022
same,glycan array binding signal (z-score),[4],-0.117
same,glycan array binding signal (z-score),[5],0.132
same,glycan array binding signal (z-score),[6],-0.086
same,glycan array binding signal (z-score),[7],-0.118
same,glycan array binding signal (z-score),[8],-0.132
same,glycan array binding signal (z-score),[9],-0.094
same,glycan array binding signal (z-score),[10],-0.032
same,glycan array binding signal (z-score),[11],-0.107
same,glycan array binding signal (z-score),[12],-0.042
same,glycan array binding signal (z-score),[13],-0.101
same,glycan array binding signal (z-score),Neu5Ac(b2-6)GalNAc,-0.131
same,glycan array binding signal (z-score),[14],-0.029
same,glycan array binding signal (z-score),[15],-0.088
same,glycan array binding signal (z-score),[16],-0.088
same,glycan array binding signal (z-score),[17],-0.026
same,glycan array binding signal (z-score),[18],-0.033
same,glycan array binding signal (z-score),Neu5Gc(a2-3)Gal(b1-4)Glc,0.047
same,glycan array binding signal (z-score),[19],-0.07
same,glycan array binding signal (z-score),[20],-0.094
same,glycan array binding signal (z-score),[21],-0.02
same,glycan array binding signal (z-score),[22],-0.063
same,glycan array binding signal (z-score),Neu5Gc(a2-6)GalNAc,-0.058
same,glycan array binding signal (z-score),[23],-0.078
same,glycan array binding signal (z-score),[24],-0.085
same,glycan array binding signal (z-score),[25],-0.047
same,glycan array binding signal (z-score),[26],-0.034
same,glycan array binding signal (z-score),[27],-0.029
